According to publication PMC3056899 (Structure (London, England : 1993), 2011):

What was measured:
[1] = molecular target: T1, CFIm68 N13-235 (methylated) (human, UniProt Q16630 13-235, reductive methylation); assay: crystal structure
T1 sequence (looked up): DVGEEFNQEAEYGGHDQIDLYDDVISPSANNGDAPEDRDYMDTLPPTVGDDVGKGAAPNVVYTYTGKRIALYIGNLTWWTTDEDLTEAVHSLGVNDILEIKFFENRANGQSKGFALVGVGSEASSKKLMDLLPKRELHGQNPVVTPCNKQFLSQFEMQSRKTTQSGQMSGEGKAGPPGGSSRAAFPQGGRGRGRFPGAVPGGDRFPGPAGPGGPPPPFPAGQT

[2] = molecular target: the molecule itself; assay: crystal structure

binding result [1]: binds
B1: CFIm25ΔN21 (methylated) (domain or fragment)
chain: not shown
modifications: reductive methylation
stoichiometry N [2]: 2
